Sequences with one replicate were seen in a single cluster, so their values are uncertain.
Test system: ATP
Assay: switch fluorescence ratio, 500 uM ATP over buffer (Cy3 cluster intensity, sum of 5 cycles each) (fold (ratio)); higher = stronger signal-on switching upon ATP binding; sequences stand for … in TCGTCGGCAGCGTCAGATGTGTATAAGAGACAGTTTTTTTTTTTTTTTTTTTTTTTTT…TC
Conditions: aptamer strand: ATP DNA aptamer (quencher-CACCTGGGGGAGTATTGCGGAGGAAGG + anchor), 100 nM annealed; ATP concentration: 500 uM; one replicate
In short: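 Cy3-labelled switching-strand clusters on a modified Illumina MiSeq flow-cell were annealed to 100 nM quencher-labelled ATP aptamer, imaged in selection buffer, then imaged after 15 min with 500 uM ATP at 22 °C. Five buffer/ATP cycles ran, with NaOH stripping and re-annealing between them. The fluorescence ratio is summed target-cycle over summed buffer-cycle Cy3 intensity per cluster, averaged per switch-domain sequence. Clusters outside 100-1000 RFU were excluded.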
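Note: ATP exposure 15 min at 22 °C before imaging.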

Question: How did the switch fluorescence ratio turn out when CCTTGGTGTT was run?
Answer: 1.28

Question: For CCTTGTACG, which switch fluorescence ratio is on record?
Answer: 1.03

Question: CCTTTGTCTG was tested. Which switch fluorescence ratio did it give?
Answer: 0.958

Question: Which switch fluorescence ratio does the source give for CCTTTTACAC here?
Answer: 1.03

Question: Which switch fluorescence ratio does the source give for CCTTTTAGG here?
Answer: 1.01

Question: Which switch fluorescence ratio does the source give for CGAAAAAACC here?
Answer: 1.04

Question: With CGAAAATTTT as the sequence, how does the switch fluorescence ratio read?
Answer: 1.01

Question: Which switch fluorescence ratio does the source give for CGAAAGAGGT here?
Answer: 0.98

Question: With CGAAAGCCTG as the sequence, how does the switch fluorescence ratio read?
Answer: 1

Question: CGAAAGGCCC was tested. Which switch fluorescence ratio did it give?
Answer: 0.957

Question: Which switch fluorescence ratio does the source give for CGAAATGCCA here?
Answer: 1.01

Question: With CGAACCTGG as the sequence, how does the switch fluorescence ratio read?
Answer: 1.03

Question: With CGAACGGCGG as the sequence, how does the switch fluorescence ratio read?
Answer: 1.01

Question: How did the switch fluorescence ratio turn out when CGAACGTAGC was run?
Answer: 1.58

Question: For CGAAGAGCCG, which switch fluorescence ratio is on record?
Answer: 1.03

Question: How did the switch fluorescence ratio turn out when CGAAGAGGTA was run?
Answer: 1.02

Question: CGAAGCGGGA was tested. Which switch fluorescence ratio did it give?
Answer: 1.38

Question: Which switch fluorescence ratio does the source give for CGAAGCTCTT here?
Answer: 1.99

Question: Which switch fluorescence ratio does the source give for CGAAGTCCTA here?
Answer: 0.983

Question: For CGAATAACGG, which switch fluorescence ratio is on record?
Answer: 1

Question: Which switch fluorescence ratio does the source give for CGAATACTTA here?
Answer: 1.07

Question: With CGAATAGGAC as the sequence, how does the switch fluorescence ratio read?
Answer: 1.03

Question: For CGAATCTCCA, which switch fluorescence ratio is on record?
Answer: 1.09

Question: For CGAATGTCGG, which switch fluorescence ratio is on record?
Answer: 1.02

Question: CGAATTATGG was tested. Which switch fluorescence ratio did it give?
Answer: 1

Question: How did the switch fluorescence ratio turn out when CGACAAAGCA was run?
Answer: 1.25

Question: Which switch fluorescence ratio does the source give for CGACAAGTT here?
Answer: 1.05

Question: With CGACACTCCT as the sequence, how does the switch fluorescence ratio read?
Answer: 1.39

Question: Which switch fluorescence ratio does the source give for CGACAGTCGG here?
Answer: 1.05

Question: How did the switch fluorescence ratio turn out when CGACATCACT was run?
Answer: 1.32

Question: How did the switch fluorescence ratio turn out when CGACCAGCTC was run?
Answer: 1.57

Question: With CGACCTTAGT as the sequence, how does the switch fluorescence ratio read?
Answer: 1.05

Question: With CGACGACTTT as the sequence, how does the switch fluorescence ratio read?
Answer: 1.15

Question: For CGACGCACGT, which switch fluorescence ratio is on record?
Answer: 3.08

Question: Which switch fluorescence ratio does the source give for CGACGCTAGA here?
Answer: 3.52

Question: How did the switch fluorescence ratio turn out when CGACGGAGCG was run?
Answer: 1.13

Question: CGACGGCAAG was tested. Which switch fluorescence ratio did it give?
Answer: 1.32

Question: How did the switch fluorescence ratio turn out when CGACTGAACT was run?
Answer: 1.07

Question: For CGACTGGCCA, which switch fluorescence ratio is on record?
Answer: 1.02

Question: With CGACTGTATG as the sequence, how does the switch fluorescence ratio read?
Answer: 0.994

Question: With CGACTTAATA as the sequence, how does the switch fluorescence ratio read?
Answer: 1.26

Question: For CGACTTACTC, which switch fluorescence ratio is on record?
Answer: 1.92

Question: Which switch fluorescence ratio does the source give for CGACTTCTCC here?
Answer: 1.24

Question: CGACTTGGGT was tested. Which switch fluorescence ratio did it give?
Answer: 1.06

Question: CGAGAAAAGA was tested. Which switch fluorescence ratio did it give?
Answer: 0.986

Question: How did the switch fluorescence ratio turn out when CGAGAATGAC was run?
Answer: 1.11

Question: With CGAGACACCT as the sequence, how does the switch fluorescence ratio read?
Answer: 1.2

Question: How did the switch fluorescence ratio turn out when CGAGACAGG was run?
Answer: 1.13

Question: Which switch fluorescence ratio does the source give for CGAGACGGGA here?
Answer: 0.999

Question: For CGAGACTTGG, which switch fluorescence ratio is on record?
Answer: 1.05

Question: CGAGAGCGCC was tested. Which switch fluorescence ratio did it give?
Answer: 1.1

Question: CGAGATACGG was tested. Which switch fluorescence ratio did it give?
Answer: 1.16

Question: For CGAGCAGATA, which switch fluorescence ratio is on record?
Answer: 2.28

Question: CGAGCCATTA was tested. Which switch fluorescence ratio did it give?
Answer: 1

Question: For CGAGCCCCGT, which switch fluorescence ratio is on record?
Answer: 1.02

Question: CGAGCGGGCC was tested. Which switch fluorescence ratio did it give?
Answer: 1.04

Question: Which switch fluorescence ratio does the source give for CGAGCTATTG here?
Answer: 0.995

Question: CGAGGAACGT was tested. Which switch fluorescence ratio did it give?
Answer: 1.01

Question: CGAGGCTTTT was tested. Which switch fluorescence ratio did it give?
Answer: 1.02

Question: With CGAGGGCTTA as the sequence, how does the switch fluorescence ratio read?
Answer: 1.03

Question: With CGAGGTAATA as the sequence, how does the switch fluorescence ratio read?
Answer: 3.81

Question: With CGAGTACAGT as the sequence, how does the switch fluorescence ratio read?
Answer: 0.985

Question: Which switch fluorescence ratio does the source give for CGAGTATACA here?
Answer: 1.07

Question: Which switch fluorescence ratio does the source give for CGAGTATCGT here?
Answer: 0.969

Question: How did the switch fluorescence ratio turn out when CGAGTCAGTA was run?
Answer: 1.02

Question: Which switch fluorescence ratio does the source give for CGAGTCCCGT here?
Answer: 1.01

Question: For CGAGTTTATC, which switch fluorescence ratio is on record?
Answer: 0.929

Question: With CGAGTTTATG as the sequence, how does the switch fluorescence ratio read?
Answer: 1.04

Question: Which switch fluorescence ratio does the source give for CGATAACGGA here?
Answer: 1.02

Question: For CGATAAGATA, which switch fluorescence ratio is on record?
Answer: 1.02

Question: With CGATAATCCG as the sequence, how does the switch fluorescence ratio read?
Answer: 0.899

Question: For CGATACACGG, which switch fluorescence ratio is on record?
Answer: 0.978

Question: How did the switch fluorescence ratio turn out when CGATACGCCG was run?
Answer: 1.14

Question: How did the switch fluorescence ratio turn out when CGATAGTCAG was run?
Answer: 0.978

Question: Which switch fluorescence ratio does the source give for CGATATCATT here?
Answer: 0.97

Question: With CGATATTGGG as the sequence, how does the switch fluorescence ratio read?
Answer: 0.99

Question: For CGATCATGTT, which switch fluorescence ratio is on record?
Answer: 1.01

Question: With CGATCCAAAC as the sequence, how does the switch fluorescence ratio read?
Answer: 1.78

Question: How did the switch fluorescence ratio turn out when CGATCCGCAG was run?
Answer: 6.61

Question: For CGATCGACGC, which switch fluorescence ratio is on record?
Answer: 1.88

Question: With CGATCGGAGA as the sequence, how does the switch fluorescence ratio read?
Answer: 1.14

Question: Which switch fluorescence ratio does the source give for CGATCGGGA here?
Answer: 0.992

Question: With CGATCGTCCT as the sequence, how does the switch fluorescence ratio read?
Answer: 1.01

Question: With CGATCTCTTG as the sequence, how does the switch fluorescence ratio read?
Answer: 1

Question: How did the switch fluorescence ratio turn out when CGATGCCGCT was run?
Answer: 1.03

Question: With CGATGCGACT as the sequence, how does the switch fluorescence ratio read?
Answer: 1.06

Question: How did the switch fluorescence ratio turn out when CGATGCTTAG was run?
Answer: 1.04

Question: For CGATGGCCAT, which switch fluorescence ratio is on record?
Answer: 0.991

Question: Which switch fluorescence ratio does the source give for CGATGGGTAG here?
Answer: 0.954

Question: How did the switch fluorescence ratio turn out when CGATGGTTG was run?
Answer: 1.06

Question: Which switch fluorescence ratio does the source give for CGATGTCACA here?
Answer: 1.05

Question: How did the switch fluorescence ratio turn out when CGATTAGTGG was run?
Answer: 0.974

Question: CGATTATCCA was tested. Which switch fluorescence ratio did it give?
Answer: 1.04

Question: For CGATTGTGCA, which switch fluorescence ratio is on record?
Answer: 0.99

Question: How did the switch fluorescence ratio turn out when CGATTTGGGA was run?
Answer: 1.03

Question: How did the switch fluorescence ratio turn out when CGATTTTTGG was run?
Answer: 1

Question: With CGCAACAGCT as the sequence, how does the switch fluorescence ratio read?
Answer: 1.28

Question: With CGCAACATTG as the sequence, how does the switch fluorescence ratio read?
Answer: 1.14

Question: CGCAACCTGA was tested. Which switch fluorescence ratio did it give?
Answer: 1.46

Question: CGCAAGAGTG was tested. Which switch fluorescence ratio did it give?
Answer: 1.63

— the supplement of paper PMC10126150
